In article PMC4336329 (PLoS ONE, 2015):
About 14,000 (4.5%) of roughly 310,000 compounds showed an effect of 50% or more. Effects have a minus sign here. The list shows a part of the results.

Molecular target: human ether-à-go-go-related gene (hERG) potassium channel (human, UniProt Q12809)
Experiment: primary screen, population patch clamp on CHO cells stably expressing hERG
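Further: peak tail current of the secondary pulse compared with the same well before compound.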

human ether-à-go-go-related gene (hERG) potassium channel, sequence (Q12809 whole entry, looked up): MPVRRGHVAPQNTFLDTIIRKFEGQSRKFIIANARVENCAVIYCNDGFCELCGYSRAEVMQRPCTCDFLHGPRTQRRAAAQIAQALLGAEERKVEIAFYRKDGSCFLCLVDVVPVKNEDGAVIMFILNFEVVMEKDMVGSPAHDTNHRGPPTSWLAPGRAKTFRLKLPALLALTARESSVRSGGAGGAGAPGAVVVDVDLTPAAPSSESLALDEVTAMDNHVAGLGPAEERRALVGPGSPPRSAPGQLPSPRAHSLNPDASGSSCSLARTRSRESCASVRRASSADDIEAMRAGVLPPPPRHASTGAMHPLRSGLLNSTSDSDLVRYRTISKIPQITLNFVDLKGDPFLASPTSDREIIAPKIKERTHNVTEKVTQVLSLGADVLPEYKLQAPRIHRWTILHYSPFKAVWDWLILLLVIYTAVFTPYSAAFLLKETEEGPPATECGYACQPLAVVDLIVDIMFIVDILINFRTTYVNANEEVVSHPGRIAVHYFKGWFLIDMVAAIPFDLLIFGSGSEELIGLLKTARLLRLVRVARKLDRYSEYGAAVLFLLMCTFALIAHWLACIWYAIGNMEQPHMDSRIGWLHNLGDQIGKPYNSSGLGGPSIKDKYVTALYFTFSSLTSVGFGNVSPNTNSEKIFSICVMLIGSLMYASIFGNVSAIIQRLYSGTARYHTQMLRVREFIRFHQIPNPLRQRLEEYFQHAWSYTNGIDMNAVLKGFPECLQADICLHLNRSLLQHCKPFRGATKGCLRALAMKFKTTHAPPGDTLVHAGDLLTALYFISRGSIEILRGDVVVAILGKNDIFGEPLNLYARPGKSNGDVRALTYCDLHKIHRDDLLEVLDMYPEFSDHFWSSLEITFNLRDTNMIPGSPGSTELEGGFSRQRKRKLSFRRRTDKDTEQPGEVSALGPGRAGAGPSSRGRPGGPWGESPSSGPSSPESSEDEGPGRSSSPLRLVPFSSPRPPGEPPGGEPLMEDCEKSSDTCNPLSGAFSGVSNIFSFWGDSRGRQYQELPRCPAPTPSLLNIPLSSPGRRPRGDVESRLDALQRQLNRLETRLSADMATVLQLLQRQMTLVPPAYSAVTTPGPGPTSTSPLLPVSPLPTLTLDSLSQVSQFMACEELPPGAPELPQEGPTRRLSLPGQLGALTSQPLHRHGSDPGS

Structure (SMILES)	hERG current change (%, negative = inhibition) at 10uM
Cc1ccc(-n2c(C)cc(/C([O-])=C(/C(=S)Nc3ccc(F)c(Cl)c3)[n+]3ccccc3)c2C)cc1	0.314%
COCCN(C(=S)Nc1ccc(Cl)cc1OC)C1CCN(C(C)=O)CC1	-7.72%
Cc1ccc(C(=O)N2CCN(c3ncccn3)CC2)c(C)c1	12.1%
COc1ccc(NC(=O)Nc2c(C)noc2-c2ccccc2)cc1	15.2%
O=C(c1cc([N+](=O)[O-])ccc1N1CCCCC1)N1CCc2ccccc21	-17.3%
COCCn1c(SCC(=O)Nc2ccc(F)cc2)nc2c(oc3ccccc32)c1=O	-19.4%
COc1ccccc1C(=O)C1CCCN(C(=O)CCc2ccccn2)C1 (centres unmarked)	-9.83%
COC(=O)c1ccc(NC(=O)C(=O)N2CCN(C(=S)Nc3cccc(C)c3C)CC2)cc1	8.47%
Cc1nc2cc(C(=O)NCc3ccc4c(c3)OCO4)ccc2n1-c1ccc(Br)cc1	-25.6%
CC(=O)N1N=C(c2ccco2)CC1c1cc2cc(C)ccc2nc1Cl (centres unmarked)	-16.6%
NC(=O)CC(NC(=O)c1ccccc1)c1ccc(NCc2ccc(F)c(F)c2)c([N+](=O)[O-])c1 (centres unmarked)	4.34%
C=CCC(NCc1ccccc1)c1ccco1 (centres unmarked)	-2.74%
O=C1CC(NC(=O)C(F)(F)F)c2cc3c(cc21)OCO3 (centres unmarked)	8.97%
Cc1c(NC(=O)Nc2ccccc2)c(=O)n(-c2ccccc2)n1C	10.1%
O=C(c1ccc(=O)n(Cc2ccc(Cl)c(Cl)c2)c1)N1CCOCC1	-8.43%
CCN(Cc1cccs1)C(=O)CN1C(=O)NC(c2ccccc2)(c2ccccc2)C1=O	-32.5%
O=C(CCCc1ccccc1)Nc1nnc(C(F)(F)F)s1	-6.35%
CCc1cc(=O)oc2c3c(cc(OCC(=O)NC4CC4)c12)OC(C)(C)CC3	-13.9%
O=C(CSc1ccc(-c2ccccn2)nn1)Nc1ccc(F)c(F)c1	-36.4%
CCOc1ccc2nc(N3CCCC(C(=O)NCCCN4C(C)CCCC4C)C3)sc2c1 (centres unmarked)	-54.7%
CCC(=O)NS(=O)(=O)c1cccnc1Nc1ccccc1Cl	10.4%
CCCC(=O)Nc1nnc(-c2ccco2)s1	2.55%

Structure (SMILES)	hERG current change (%, negative = inhibition) at 10uM
Cc1csc(SCC(=O)Nc2cc(S(=O)(=O)N(C)C)ccc2C)n1	1.81%
CC(=O)c1c(C)nc2sc3c(=N)n(N)cnc3c2c1-c1ccc(Cl)cc1	-14.1%
O=C(CN1C(=O)C2CC=CCC2C1=O)Nc1cc(C(F)(F)F)ccc1N1CCCC1 (centres unmarked)	-24.6%
CCOC(=O)c1cnc2nc(SCc3ccccc3Cl)[nH]n2c1=O	16.9%
COc1ccc(-c2csc(NC(=O)CSc3nc4ccccc4c(=O)[nH]3)n2)cc1	19.6%
CC(=O)Nc1ccc(NC(=O)C2CC(=O)N(c3cccc(Cl)c3)C2)cc1 (centres unmarked)	39.4%
Cc1ccc(C)c(Nc2c([N+](=O)[O-])cc(C(=O)N3CC(=O)Nc4ccccc43)cc2[N+](=O)[O-])c1	18.2%
Cc1oc2cc(O)ccc2c(=O)c1Oc1ccccc1	-10.2%
O[C@@H]([C@H](O)[C@H](O)CBr)[C@H](O)CBr	18%
CC(C)CC(=O)NC(=S)Nc1nc(-c2cccc3ccccc23)cs1	12.7%
O=C(Nc1ccc(Cn2cccn2)cc1)c1ccc(COc2cccc(Br)c2)cc1	9.7%
O=C(c1ccccc1F)N1CCN(c2ccc([N+](=O)[O-])c3ncccc23)CC1	-68.1%
CC(C)(/C=N/O)/[N+]([O-])=C/c1ccccc1C(F)(F)F	-7.9%
CSc1ccccc1NC(=O)c1ccccc1	-1.44%
CCCOc1ccc(C(C)=O)cc1CSc1nc(O)cc(=O)[nH]1	14.4%
O=c1[nH]c2ccc(Cl)cc2c(=O)n1Cc1ccco1	20.1%
O=C(COc1ccccc1)Nc1ccc(Cl)cc1Cl	12.1%
CC(C)N1C(=O)S/C(=C/c2cccnc2)C1=O	8.88%
Cc1nn(C(C)C(=O)Nc2ccc(Cl)cn2)c(C)c1[N+](=O)[O-] (centres unmarked)	-8.62%
CN(C)CCCN1C(=O)c2oc3ccc(F)cc3c(=O)c2C1c1cccnc1 (centres unmarked)	2.36%
Cc1ccc(S(=O)(=O)N2CCOCC2)cc1C(=O)Nc1ccccc1N1CCOCC1	-12.8%
NC(=S)N/N=C\c1c2ccccc2cc2ccccc12	-16.3%

Structure (SMILES)	hERG current change (%, negative = inhibition) at 10uM
CN1C(=O)/C(=C/c2cc(C(C)(C)C)c(O)c(C(C)(C)C)c2)NC1=S	16.6%
Cc1ccc(NC(=O)CSc2nnc(-c3ccco3)c(-c3ccco3)n2)cc1	-64.9%
Cc1ccc(NC(=O)C2CC(=O)NC(N3CCc4ccccc43)=N2)cc1 (centres unmarked)	-7.42%
Cc1cc(NN)nc2ccc(Cl)cc12	-4.71%
CCC(CC)C(=O)c1c[nH]c(C(=O)NCc2ccncc2)c1	2.49%
O=C(N/N=C/c1ccncc1)C1C2CCCCCCC21 (centres unmarked)	-2.08%
CCCCNc1c(N)n(CC(C)C)c(=O)[nH]c1=O	-9.14%
Cc1nc2ccccn2c1C(=O)NCc1ccc2c(c1)OCO2	-0.471%
Cl.O=C(c1cc(S(=O)(=O)Nc2ccccc2F)c(Cl)cc1Cl)N1CCN(CCO)CC1	17.6%
O=C1c2ccccc2C(Nc2ccc(S(=O)(=O)N3CCCCC3)cc2)N1c1ccccn1 (centres unmarked)	4.15%
COc1ccccc1CNS(=O)(=O)c1c(C)noc1C	13.2%
O=C(Cn1cc(C(F)(F)F)cc(Cl)c1=O)Nc1cccc(S(=O)(=O)N2CCCCC2)c1	4.9%
Cc1cc(C)c2c(CN3CCOCC3)cc(=O)oc2c1	-7.28%
C/C(=N\NC(=S)NCc1ccccc1)c1ccc(Cl)cc1	-2.11%
Nc1ncnc(Nc2cccc(F)c2)n1	-0.107%
CCCn1c(=S)[nH]c2cc(C(=O)N(CCO)Cc3ccccc3)ccc2c1=O	0.462%
COc1ccccc1-c1ccc(SCC(=O)NCCc2ccccc2)nn1	-38.9%
CCc1nnc(NC(=O)[C@@H](NC(=O)c2cc(OC)cc(OC)c2)C(C)C)s1	18.1%
COCCCN(C(=O)Cc1csc(-c2cccc(Cl)c2)n1)c1c(N)n(Cc2ccccc2)c(=O)[nH]c1=O	-48.5%
Cc1ccccc1N(C(=O)c1csnn1)C(C(=O)NC1CCCC1)c1ccncc1 (centres unmarked)	4.31%
N/C(=N\OS(=O)(=O)c1ccccc1)c1ccncc1	12.5%
CN(C(=O)c1ccc(NC(=O)Cc2ccc(NC(=O)C3CCCN(C(=O)C4CCCCC4)C3)cc2)cc1)C1CC1 (centres unmarked)	6.24%

Structure (SMILES)	hERG current change (%, negative = inhibition) at 10uM
Oc1ccc(Nc2nnc(-c3ccc(O)cc3)c3ccccc23)cc1	24.3%
Cc1cc(C)c2c(N)c(C(=O)Nc3c(C)n(C)n(-c4ccccc4)c3=O)sc2n1	34.4%
O=C(OCC(=O)N1CCCCCC1)c1ccccc1Br	-17.4%
CCCCC#Cc1cncc(C(=O)NN)c1	0.845%
COc1ccc(OCC(=O)Nc2ccccc2C(=O)Nc2ccc(C(=O)O)cc2)cc1	0.622%
COc1cccc(N2CC(C(=O)Nc3c(C)cccc3C)CC2=O)c1 (centres unmarked)	-2.79%
CC1(C)C(=O)OC(c2ccccc2)C(C)(C)C1=O (centres unmarked)	-13.4%
O=C(CSc1ccc(-c2nc3ccccc3[nH]2)cn1)Nc1ccc(S(=O)(=O)N2CCCC2)cc1	4.31%
COc1cccc(CNC(=O)c2cc(S(=O)(=O)N3CCOCC3)ccc2N2CCCC2)c1	-14.4%
O=C(CCNC(=O)c1ccc(Br)cc1)NCC(c1ccco1)N1CCCCC1 (centres unmarked)	-17.2%
CC(C)NC(=O)C1CCN(C(=O)c2cc3sccc3n2Cc2ccc(F)cc2)CC1	-3.2%
CCc1nc(SCC(=O)NCCc2ccccc2)c2oc3ccccc3c2n1	-17.4%
CC(C)c1ccc2[nH]c(O)c(N=NC(=S)NCCc3ccccc3)c2c1	22%
Cn1nnnc1SCC(=O)N1CCN(c2cccc(Cl)c2)CC1	-26.8%
CC(C)Oc1ccc(C(=O)Nc2ccc([N+](=O)[O-])cc2)cc1	0.142%
C=CCn1c(SCC(=O)Nc2nc3ccccc3s2)nnc1-c1ccccc1O	-16.7%
CCOC(=O)c1c(C)[nH]c(C(=O)COC(=O)CSCC(=O)N(CC)CC)c1C	0.618%
COCC(C)N1CCC(Oc2ccc(C(=O)NCc3ccccn3)cc2)CC1 (centres unmarked)	13.1%
NC(=O)CC(NC(=O)Cc1ccc(Br)cc1)c1ccc(NCCN2CCOCC2)c([N+](=O)[O-])c1 (centres unmarked)	14.9%
COc1ccc([N+](=O)[O-])c(OC)c1C(=O)NC(=O)Nc1nc(C)cc(C)n1	18%
